Data as given in patent US5795859A (priority 1991, dated 1998).
Like-named read-outs stand apart in the source and are kept apart here. Part of at least one peptide drawing is inferred or uncertain, most often the ends. Ends that are not written are not given here.

How the values were obtained:
[1] = test system: WEH1-164 subcutaneous tumours; assay: TNF-induced tumour regression; type: in vivo, mice; conditions: TNF 10 μg and 20 μg and peptide 1 mg i.p. for four consecutive days
human neutrophils [2] = conditions: peptide alone
human neutrophils [3] = assay: LPS priming of neutrophils for the fMLP chemiluminescence response; type: cell-based; conditions: inhibition of LPS priming for fMLP response
mice = assay: In vivo TNF toxicity, blood glucose and appearance; conditions: TNF 200 μg + Peptide 1 10 mg i.v.
[4] = test system: ascites tumour-bearing mice; assay: TNF effects in ascites tumour-bearing mice (blood glucose, weight); type: in vivo; conditions: TNF + Peptide 1
[5] = test system: WEHI 164 fibrosarcoma cells; assay: In vitro cytotoxicity on WEHI 164 cells; type: cell-based
human neutrophils [6] = assay: Direct induction of neutrophil chemiluminescence by TNF; type: cell-based
human neutrophils [7] = assay: Direct induction of neutrophil chemiluminescence by LPS; type: cell-based
human neutrophils [8] = assay: TNF priming of neutrophils for the fMLP chemiluminescence response; type: cell-based; conditions: inhibition of TNF priming for fMLP response

“VRSSSRTPSDKPVAHVVA [Peptide 1, VAL ARG SER SER SER ARG THR PRO SER ASP LYS PRO VAL ALA HIS VAL VAL ALA]” was tested, and the “effect on TNF-induced tumour regression” value [1] was “unaffected”, the “lucigenin dependent chemiluminescence, peak of response” value (“lucigenin dependent chemiluminescence” for short) (human neutrophils [2]; 1 ug/10^6 cells, 0 ug control 0.37 (0.34 for 1, 1.02 for 275)) was 0.93 mV and the “lucigenin dependent chemiluminescence” value (human neutrophils [2]; 10 ug/10^6 cells) was 0.74 mV. For the same sequence, the “lucigenin dependent chemiluminescence” value (human neutrophils [2]; 100 ug/10^6 cells) was 0.55 mV, the “lucigenin dependent chemiluminescence” value (human neutrophils [2]; 500 ug/10^6 cells) was 1.10 mV and the “IN VITRO NEUTROPHIL LPS PRIMING” value (human neutrophils [3]) was “+ (Results were deemed positive if at least 50% inhibition of chemiluminescence was obtained in at least two thirds of cases)”. The “general appearance, TNF + Peptide 1” value (mice) was “ruffling of the fur and slight touch sensitivity at 180 mins but failed to show either light sensitivity or onset of diarrhoea”, the “blood glucose levels, TNF + Peptide 1” value (mice; 120 min) was “no reduction in blood glucose levels” and the “blood glucose levels, TNF + Peptide 1” value (mice; 180 min) was “a small decrease”. The “TNF-induced hypoglycaemia in ascites tumour-bearing mice” value [4] was “inhibits not only the TNF-induced hypopglycaemia in sensitized mice but also in ascites tumor-bearing mice”, the “TNF-induced cachexia or weight loss” value ([4]; tumour-bearing mice) was “fail to develop the cachexia or weight loss” and the intrinsic anti-tumour activity ([5]; Table 6) was “devoid of intrinsic anti-tumour activity”. The “% VIABLE CELLS” value ([5]; peptide at 50 ug/culture (200 ug/ml), versus untreated control cells, means of quadruplicates) was 100%, the “inhibition of TNF-induced respiratory burst / chemiluminescence” value (human neutrophils [6]; in words) was “inhibited” and the “IN VITRO NEUTROPHIL TNF DIRECT” value (human neutrophils [6]; inhibition of TNF-induced chemiluminescence, * heightened activity, ** activity at low but not high peptide concentrations) was “+ (Results were deemed positive if at least 50% inhibition of chemiluminescence was obtained in at least two thirds of cases)”. For the same sequence, the “inhibition of LPS-induced respiratory burst / chemiluminescence” value (human neutrophils [7]; in words) was “inhibited”, the “IN VITRO NEUTROPHIL LPS DIRECT” value (human neutrophils [7]; inhibition of LPS-induced chemiluminescence) was “+ (Results were deemed positive if at least 50% inhibition of chemiluminescence was obtained in at least two thirds of cases)” and the “IN VITRO NEUTROPHIL TNF PRIMING” value (human neutrophils [8]) was “+ (Results were deemed positive if at least 50% inhibition of chemiluminescence was obtained in at least two thirds of cases)”.
